# Measurements published in PubChem BioAssay AID588453 (National Center for Advancing Translational Sciences (NCATS), 2011).
# Where “and” joins values, the source holds several entries; their conditions need not be identical. Equal values may be shown once. Screen size: about 390,000 compounds; about 4,000 (1%) were called active. Inconclusive means that the source gave no clear call. Such entries were picked first, then a sample of the others. Calls come from the whole dose curve; as a rule, active = well fitted inhibition curve with a large enough effect; inconclusive = small, poorly fitted or top-dose-only effect; inactive = no such curve, though single readings can be large or run the other way. Potencies beside an inconclusive call are fits to weak or partial responses and may not hold up.
# Target: Thioredoxin reductase 1, cytoplasmic (Rattus norvegicus) (UniProt O89049)
# Assay: qHTS Assay for Inhibitors of Mammalian Selenoprotein Thioredoxin Reductase 1 (TrxR1): qHTS; note: nearly all actives have a fitted effect of over 65% in size
# Conditions: recombinant rTrxR1, NADPH fluorescence consumption, selenite substrate; series mostly up to 114 µM; activity change, negative = inhibition: at the top concentration
# Outline: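 Rat TrxR1 (90 nM in the dispensed reagent) was pre-reduced with 400 uM NADPH for 5 min at room temperature, then incubated with compound for 15 min. After 400 uM selenite was added, NADPH fluorescence (Ex 340/Em 450 nm) was followed for 8 min.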
# % is set by controls: 0 for no effect and ±100 for the full control effect; potency is the fitted concentration of half-maximal effect; tags give direction and shape of the fitted curve.
# Chain of UniProt O89049 (O89049 whole entry, looked up): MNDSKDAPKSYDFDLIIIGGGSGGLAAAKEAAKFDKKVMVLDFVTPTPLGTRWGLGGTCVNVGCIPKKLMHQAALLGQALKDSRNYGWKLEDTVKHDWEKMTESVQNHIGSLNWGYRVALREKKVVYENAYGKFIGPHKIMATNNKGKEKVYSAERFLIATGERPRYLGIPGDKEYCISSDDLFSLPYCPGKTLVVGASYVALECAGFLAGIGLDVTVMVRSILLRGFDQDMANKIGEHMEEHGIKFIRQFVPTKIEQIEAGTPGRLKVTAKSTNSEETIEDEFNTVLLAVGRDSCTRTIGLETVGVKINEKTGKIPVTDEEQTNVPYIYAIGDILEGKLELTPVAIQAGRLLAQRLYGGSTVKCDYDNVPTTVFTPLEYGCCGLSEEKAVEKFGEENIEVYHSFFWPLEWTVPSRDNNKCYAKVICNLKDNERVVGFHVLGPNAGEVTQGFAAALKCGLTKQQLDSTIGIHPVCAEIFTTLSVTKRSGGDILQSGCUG
SMILES,Potency,"activity change, negative = inhibition"
COc1cc(OC)cc(C(=O)Oc2ccc(/C=N/Nc3nc4ccccc4s3)cc2OC)c1,"inconclusive: 89.1 µM [inhibitor, partial curve, poor fit]",–
Cc1ccc(S(=O)(=O)N/N=C/c2ccc(O)c(O)c2)cc1[N+](=O)[O-],active: 11.2 µM,–
CCCCNc1c(C(=O)OCC)c(C)nc2c1cnn2CC,"inconclusive: 44.7 µM [inhibitor, partial curve, poor fit]",–
CC(C)(C)C(=O)CSc1ncccn1,"inconclusive: 70.8 µM [inhibitor, partial curve, poor fit]",–
COc1cc(CN2CCC(C(=O)N3CCN(c4ccccc4F)CC3)CC2)cc(OC)c1O,"inconclusive: 12.6 µM [inhibitor, partial curve, poor fit]",–
CN(c1ccccc1)c1ccc(/C=C/[N+](=O)[O-])cc1,"inconclusive: 31.6 µM [inhibitor, full curve]",–
O=C1C=CC(=O)N1c1ccc2c(c1)C(NC(=O)C(F)(F)F)c1ccccc1-2 (stereo not drawn),active: 1.78 µM,–
NS(=O)(=O)c1ccc(CCNC(=O)c2cccc3ccccc23)cc1,"inconclusive: 8.91 µM [inhibitor, partial curve]",–
CCOc1cc(/C=C2\NC(=O)NC2=O)cc([N+](=O)[O-])c1O,active: 50.1 µM,–
O=C(NCCOc1ccccc1Cl)c1cc(F)c(F)cc1Cl,–,inactive: 1.82%
CCCCn1c2c(c(=N)c3c1CCC3)CCC2,–,inactive: -11.3%
CC1(C)Cc2nc3sc4c(SCC(=O)NCc5ccco5)ncnc4c3cc2CO1,"inconclusive: 22.4 µM [inhibitor, single point]",–
COCCn1c(C)c(C(=O)O)sc1=S,"inconclusive: 56.2 µM [inhibitor, partial curve, poor fit]",–
O=C(NCCN1C(=O)S/C(=C\c2ccccc2F)C1=O)C1CC(=O)N(Cc2ccccc2)C1 (stereo not drawn),"inconclusive: 79.4 µM [inhibitor, single point]",–
COc1ccc2c(c1)sc1nc(-c3ccccc3)cn12,–,inactive: -0.23%
CCn1c(SCC(=O)N2CCc3ccccc32)nnc1-c1ccco1,"inconclusive: 70.8 µM [inhibitor, partial curve, poor fit]",–
COc1cccc(CN2c3ccc(Br)cc3C(=O)CS2(=O)=O)c1,active: 56.2 µM and active: 2.24 µM,–
Cc1ccc(C(=O)NCC(c2ccco2)S(=O)(=O)c2ccc(Cl)cc2)cc1C (stereo not drawn),"inconclusive: 6.31 µM [inhibitor, single point]",–
CCc1ccc(-n2nc(CO)c(C(=O)NCc3cccs3)n2)cc1,"inconclusive: 89.1 µM [inhibitor, single point]",–
Cc1ccc(NC(=O)c2ccc(Nc3c([N+](=O)[O-])cc([N+](=O)[O-])cc3[N+](=O)[O-])cc2)cc1,"inconclusive: 56.2 µM [inhibitor, partial curve, poor fit]",–
CCOCCCNC(=O)c1c(NC(=O)c2nc(SC)ncc2Cl)sc2c1CCCC2,inactive,–
COc1cc(NC(C)CCCN)c2ncccc2c1 (stereo not drawn),"inconclusive: 79.4 µM [inhibitor, partial curve, poor fit]",–

SMILES,Potency,"activity change, negative = inhibition"
O=C(NC(=S)Nc1ccc(Cc2ccncc2)cc1)c1ccccc1F,"inconclusive: 28.2 µM [inhibitor, partial curve, poor fit]",–
O=C1CCCC/C1=C/Nc1ccc2c(c1)OCO2,"inconclusive: 89.1 µM [inhibitor, single point]",–
CC(NC(=O)c1ccc(F)cc1F)C1CC2CCC1C2 (stereo not drawn),–,inactive: 9.15%
C/C=C1\COC(C(=O)NC)(C(F)(F)F)C=C1C=C1CCCCC1 (stereo not drawn),active: 1.41 µM,–
CC1C(=O)N2CCCc3cc(S(=O)(=O)N(C)c4ccccc4)cc1c32 (stereo not drawn),"inconclusive: 89.1 µM [inhibitor, single point]",–
Fc1cccc(Cl)c1CNc1ccc(N2CCCC2)cc1,active: 3.98 µM,–
O=C(Nc1cccnc1)c1ccc([N+](=O)[O-])s1,"inconclusive: 79.4 µM [inhibitor, single point]",–
O=C(Nc1cccnc1)C1(F)C(F)(F)C(F)(F)C(F)(F)C(F)(F)C1(F)F,"inconclusive: 28.2 µM [inhibitor, partial curve, poor fit]",–
O=C(CSc1nc2c(c(=O)n1-c1ccc(Br)cc1)SCC2)NCc1ccco1,"inconclusive: 20 µM [inhibitor, partial curve]",–
CC1(C)CC(=O)C2=C(C1)NC1=C(C(=O)c3ccccc31)C2c1cc([N+](=O)[O-])ccc1O (stereo not drawn),"inconclusive: 20 µM [inhibitor, partial curve, poor fit]",–
O=C(Nc1ccccc1N1CCOCC1)c1ccc([N+](=O)[O-])o1,"inconclusive: 44.7 µM [inhibitor, partial curve]",–
Cc1cc(C)nc(NS(=O)(=O)c2cccs2)c1,"inconclusive: 89.1 µM [inhibitor, partial curve, poor fit]",–
COc1cccc(C(=O)NC(=S)Nc2ccc([N+](=O)[O-])cc2C)c1,"inconclusive: 12.6 µM [inhibitor, full curve]",–
Cn1c(-c2ccccc2)cc2c3no[n+]([O-])c3ccc21,–,inactive: 10.2%
S=c1[nH]nc(-c2ccccn2)n1/N=C/c1ccccc1,"inconclusive: 56.2 µM [inhibitor, single point]",–
COc1ccc(/C=C(\NC(=O)c2ccc(C)cc2)C(=O)Nc2ccc(C(=O)O)cc2)cc1,–,inactive: 7.4% [at 57.1 µM]
Cc1cccnc1NC(=S)NCc1ccco1,"inconclusive: 3.55 µM [inhibitor, partial curve, poor fit]",–
CC(=O)c1cccc(NC(=O)c2cc(-c3ccco3)nc3ccccc23)c1,"inconclusive: 39.8 µM [inhibitor, partial curve]",–
COc1ccc2nc(N3CCN(C(=O)c4ccc([N+](=O)[O-])o4)CC3)sc2c1,"inconclusive: 17.8 µM [inhibitor, partial curve]",–
NC(=S)NNC(=S)Nc1ccccc1,"inconclusive: 2.82 µM [inhibitor, partial curve, poor fit]",–
CN1c2ccccc2C(C)(C)C12C=Cc1cc(O)ccc1O2 (stereo not drawn),"inconclusive: 39.8 µM [inhibitor, single point]",–
